Assay [1] deals with methicillin-sensitive Staphylococcus aureus (MSSA) strain ATCC 12600. In words: MIC, spiral gradient endpoint assay, MSSA. As to conditions: for MIC: Staphylococcus aureus, 16 h, read-out: MIC S. aureus MSSA 12600.
The test system of assay [2] is Escherichia coli strain D21f2tolC. The assay can be described thus: MIC, spiral gradient endpoint assay, E. coli. As to conditions: for MIC: Escherichia coli, D21F2TOLC, 16 h, read-out: MIC E. coli D21f2tolC.
Assay [3] deals with methicillin-sensitive Staphylococcus aureus (MSSA) strain 8325-4. The assay can be described thus: Mouse model of S. aureus systemic infection (peritonitis model), MSSA. Particulars: mice, intravenous administration; for PD50: 50% survival at 24 h (probit method); for PD100: 100% survival at 24 h.
In assay [4] the test system is methicillin-resistant Staphylococcus aureus (MRSA) strain BAA-1707 (USA-400, MW2). The assay can be described thus: Mouse model of S. aureus systemic infection (peritonitis model), MRSA. Particulars: mice; for PD50: 50% survival at 24 h (probit method); for PD100: 100% survival at 24 h.
Assay [5] relates to methicillin-resistant Staphylococcus aureus (MRSA) strain BAA-1707 (USA-400; MW2). The assay can be described thus: MIC, spiral gradient endpoint assay, MRSA. Particulars: for MIC: Staphylococcus aureus, 16 h, read-out: MIC S. aureus MRSA BAA-1707.
[6] abbreviates: 16 h at 37° C., Mueller-Hinton II agar.

Each structure is given as a SMILES string. ≈ marks a conversion by molar mass, not a printed value. A value given as a limit tells only on which side of the number the result lay.

For the compound `CCCC/C(C)=C/C=C(\C)C(=O)c1c(O)cc([C@H](C)CC/C=C/NC(=O)OC)oc1=O` (racemic) [Myx B, (±)myxopyronin B, reference compound], the “MIC S. aureus MSSA 12600” value in assay [1] (setting [6]) was determined as 0.6 µg/mL (≈ 1.39 µM). The “MIC E. coli D21f2tolC” value in assay [2] (setting [6]) came to 0.1 µg/mL (≈ 0.232 µM). Moreover, the PD50 in assay [3] is given as 30 mg/kg; in assay [4] (intravenous administration), 20 mg/kg; in assay [4] (oral administration), 40 mg/kg. Further, the PD100 was more than 50 mg/kg in assay [3], 50 mg/kg in assay [4] (intravenous administration) and 100 mg/kg in assay [4] (oral administration). In addition, in assay [5] (setting [6]), the “MIC S. aureus MRSA BAA-1707” value turned out to be 0.9 µg/mL (≈ 2.09 µM).

On to `COC(=O)N/C=C/CCCc1cc(O)c(C(=O)/C(C)=C/C=C(\C)CCC(F)(F)F)c(=O)o1` [compound 11, Methyl ((E)-5-(4-hydroxy-2-oxo-3-((2E,4E)-8,8,8-trifluoro-2,5-dimethylocta-2,4-dienoyl)-2H-pyran-6-yl)pent-1-en-1-yl)carbamate], for which the MIC came out at 2 µg/mL (≈ 4.37 µM) in assay [1], 0.2 µg/mL (≈ 0.437 µM) in assay [2] and 2 µg/mL (≈ 4.37 µM) in assay [5].

For `COC(=O)N/C=C/CCC(C)c1cc(O)c(C(=O)/C(C)=C/C=C(\C)CCCCC(F)(F)F)c(=O)o1` (stereo not shown) [compound 3, Methyl ((E)-5-(4-hydroxy-2-oxo-3-((2E,4E)-10,10,10-trifluoro-2,5-dimethyldeca-2,4-dienoyl)-2H-pyran-6-yl)hex-1-en-1-yl)carbamate], the MIC in assay [1] was found to be 1 µg/mL (≈ 2 µM); in assay [2] it was 0.3 µg/mL (≈ 0.601 µM); in assay [5] it was 3 µg/mL (≈ 6.01 µM).

`COC(=O)N/C=C/CCC(C)c1cc(O)c(C(=O)/C(C)=C/C=C(\C)CCC(F)(F)F)c(=O)o1` (stereo not shown) [compound 5]: the figures for the MIC in assay [1], in assay [2] and in assay [5] were 0.9 µg/mL (≈ 1.91 µM), 0.2 µg/mL (≈ 0.424 µM) and 1 µg/mL (≈ 2.12 µM), respectively. The values for the PD50 in assay [3] and in assay [4] (oral administration) were 7 mg/kg and 20 mg/kg, respectively. Also, the PD100 turned out to be 25 mg/kg in assay [3] and 50 mg/kg in assay [4] (oral administration).

For the compound `COC(=O)N/C=C/CCC(C)c1cc(O)c(C(=O)/C(C)=C/C=C(\C)CCCC(F)(F)F)c(=O)o1` (stereo not shown) [compound 1, Methyl ((E)-5-(4-hydroxy-2-oxo-3-((2E,4E)-9,9,9-trifluoro-2,5-dimethylnona-2,4-dienoyl)-2H-pyran-6-yl)hex-1-en-1-yl)carbamate], the MIC in assay [1] amounted to 0.3 µg/mL (≈ 0.618 µM); in assay [2], 0.07 µg/mL (≈ 0.144 µM); in assay [5], 0.5 µg/mL (≈ 1.03 µM). Besides, the PD50 in assay [3] turned out to be 20 mg/kg; in assay [4] (intravenous administration), 10 mg/kg. The values for the PD100 in assay [3] and in assay [4] (intravenous administration) were more than 25 mg/kg and 50 mg/kg, respectively.

Consider `COC(=O)N/C=C/CCCc1cc(O)c(C(=O)/C(C)=C/C=C(\C)CCCC(F)(F)F)c(=O)o1` [compound 9, Methyl ((E)-5-(4-hydroxy-2-oxo-3-((2E,4E)-9,9,9-trifluoro-2,5-dimethylnona-2,4-dienoyl)-2H-pyran-6-yl)pent-1-en-1-yl)carbamate], for which the minimal inhibitory concentration (MIC) in assay [1] is 0.9 µg/mL (≈ 1.91 µM); in assay [2], 0.2 µg/mL (≈ 0.424 µM); in assay [5] it was 0.8 µg/mL (≈ 1.7 µM). Moreover, in assay [3], the PD50 is 10 mg/kg. This compound also returned a PD100 in assay [3] of 25 mg/kg.

A word on the MIC: it is the smallest concentration in the dilution series that meets the test's criterion for growth inhibition.
